Test results reported in the supplement of paper PMC3724861.
The other results are listed elsewhere or left out.

The sequences below were run on T1, Caupolican (Caup) homeodomain DNA-binding domain (assay: PBM E-score (8-mer, recovered from the published 9-mer minima) (E-score (dimensionless, -0.5 to 0.5)); Drosophila protein; higher = stronger relative binding preference, active = 0.31 or more).
T1 sequence: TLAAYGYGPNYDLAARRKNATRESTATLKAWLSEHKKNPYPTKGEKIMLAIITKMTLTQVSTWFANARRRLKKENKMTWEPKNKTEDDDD
Method in brief: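 An enrichment score, with higher meaning stronger, expresses relative binding preference for each short DNA word. The protein used was Caup's homeodomain DNA-binding domain (residues 214-303), produced by in vitro transcription and translation and tested at 100 nM on custom-designed protein binding microarrays. The 8-mer values were recovered from published 9-mer scores, each equal to the lower of its two constituent 8-mer scores.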

Sequence | PBM E-score
TCCACTAA | inactive: 0.00095
AAGGGCCA | ≥ -0.112
GGTTCAAC | inactive: -0.0443
AAGATAGT | inactive: 0.0255
GAACACGA | active: 0.32
ACAAGCCG | inactive: 0.146
ATAGAGTA | inactive: 0.0752
TCGACACA | inactive: 0.232
GGTGCGAA | inactive: -0.039
ACCATTCA | inactive: 0.0576
CAACGCGG | inactive: -0.122
ACAGCCGC | inactive: -0.149
CCCAGATA | inactive: -0.142
ATTGACCG | inactive: 0.0782
ATCTTATA | inactive: 0.0876
CCAGCTCA | inactive: -0.14
ACTTTGTC | inactive: 0.086
CCGGCTGA | inactive: -0.126
CACTACCG | inactive: -0.0583
GGGGCGTA | inactive: -0.201
AAGAAAAG | inactive: 0.0402
TCGTACAA | active: ≥ 0.37
CCAAGCCA | inactive: -0.112
AATAACAA | inactive: 0.28
GAAGGCCA | inactive: -0.295

Sequence | PBM E-score
CACTACTG | inactive: 0.086
ACAGTATC | inactive: 0.172
AGCTAACT | inactive: -0.00598
ACGCTTGG | inactive: -0.0244
CTGCTTGA | inactive: -0.0343
AGATAGAC | inactive: 0.053
GAATCAGA | inactive: 0.085
ATATATGC | inactive: 0.118
CAAGATTC | inactive: 0.00713
ACGCAGAT | inactive: 0.0203
CTCCTTCC | inactive: -0.0839
CAAGGGCG | inactive: -0.0867
ATCTGGGA | inactive: -0.113
CGCGCATC | inactive: -0.0873
GACGGACC | inactive: -0.0214
GCTATGGA | inactive: -0.0501
AGGGAACT | inactive: -0.0999
ATGAATAA | inactive: 0.173
CGGTTTAG | inactive: -0.0743
AGCAGAAT | ≥ 0.0258
TCCAGCAA | ≥ 0.0234
AGTCGGAA | inactive: 0.015
GGGTGACA | inactive: 0.059
ATGTCAAC | active: 0.324
AGGATCCG | inactive: -0.0867

Sequence | PBM E-score
TAAACACA | ≥ 0.273
AATGATTG | inactive: 0.142
AGGTTCGA | ≥ 0.0215
ACAAAGCC | inactive: -0.0102
AGATCGGG | inactive: -0.2
GCTCTAAA | inactive: -0.0235
ATAAAAGA | inactive: 0.0174
CCTATTCC | inactive: -0.00635
GCGTCGGA | inactive: -0.0823
CTACGATA | inactive: 0.1
GTGGCGCA | inactive: -0.102
ATCACGTC | inactive: 0.119
AGACTGTA | inactive: 0.0542
ACTGTCGG | inactive: -0.0828
AATGGTGG | inactive: -0.0687
AATGAAAA | inactive: -0.00519
TCCTGAAA | inactive: -0.0805
CCGTCCAC | inactive: -0.0851
AGGTTATC | inactive: -0.00432
CTGTGCAC | inactive: -0.0981
CAACAAGG | active: 0.338
AAAAATGA | inactive: 0.113
GCCACAGA | inactive: -0.0438
CAACTATC | inactive: 0.00352
CGAAACCG | inactive: -0.0748

Sequence | PBM E-score
AATGGGCA | inactive: -0.0275
GGTGGCAC | inactive: -0.208
CTCCATCA | inactive: -0.0502
GCCGTTAC | inactive: -0.00869
CTCCTGTC | inactive: 0.109
ATAAGGAG | inactive: -0.0451
AGCTACGG | inactive: -0.068
TCGCGAGA | inactive: -0.106
GACGATGC | inactive: 0.0108
AATAACGG | inactive: -0.0242
CCACCCAA | inactive: -0.0435
GCAACACC | inactive: 0.0665
ATTTTTAA | inactive: 0.0998
CAAAGGAC | inactive: -0.0362
CGATGGTA | inactive: -0.00639
AGTCAAGC | inactive: -0.0991
ACGCGCCA | inactive: -0.111
TCGCTCAA | inactive: 0.0128
GGCGATAC | inactive: -0.00217
TCGCAAAA | inactive: 0.0116
AAGCATGA | inactive: 0.0838
CTTACCGA | inactive: -0.05
CCAGGGGA | inactive: -0.272
TCGCGACA | inactive: 0.153
TCGTTTAA | inactive: 0.1

Sequence | PBM E-score
AGAATTTA | ≥ 0.126
CTGGGATA | inactive: -0.0847
AATGATGA | inactive: 0.172
ACGTATGC | inactive: 0.0521
TCTAATAA | inactive: 0.177
ATATATAG | inactive: 0.173
AGCCACCA | inactive: -0.126
AAGGGTGG | inactive: -0.132
ATTGAGGA | ≥ 0.0037
GATCAACC | inactive: -0.0182
GTTCTTTA | inactive: 0.129
TAAGAACA | active: 0.313
ACACAGTG | inactive: 0.187
GGGGCACA | inactive: -0.1
GGCAAGAA | inactive: -0.0502
GAGCAGGA | inactive: 0.0596
GATACGCA | inactive: -0.0244
ACCCTGAA | inactive: 0.05
AGCAACGA | inactive: 0.0654
GTTCGCTA | inactive: 0.0799
ATTCATGC | inactive: 0.0406
ATAGGGAC | inactive: -0.0208
GCCTCGAA | inactive: -0.0979
TAGGCCTA | ≥ -0.0475
AAAGCCTG | inactive: -0.131

Sequence | PBM E-score
GCGTTGCA | inactive: -0.0193
AGATAGTG | inactive: 0.0848
GCTACCAA | inactive: 0.0208
GCCGCGCC | inactive: -0.299
ACTGGAGG | inactive: -0.177
ATGTTCCA | inactive: 0.289
AGGCTTCA | inactive: -0.136
ACTCTGGA | inactive: 0.0189
CTGAATTC | inactive: 0.0344
CCTAGAAG | inactive: -0.176
AACCTCAC | inactive: -0.037
GCCAAGCC | inactive: -0.216
CCACCACG | inactive: -0.124
CCAGTCTC | inactive: -0.183
ACTGCGCT | inactive: -0.0333
TCGTACCA | inactive: 0.0924
AATGTGAA | inactive: 0.174
ACGGATTA | inactive: 0.101
ATATCATC | inactive: 0.145
CTAAACCA | inactive: -0.0274
CTATTACA | active: 0.346
AAGGGTCC | inactive: -0.33
GTGGACAA | inactive: 0.167
CGAGTGTC | inactive: -0.106
GAACCTCA | inactive: -0.0416

Sequence | PBM E-score
ACTGGTGG | inactive: -0.0801
GGGTCGGA | inactive: -0.217
GAAGTACA | inactive: 0.269
CACGCTAC | inactive: 0.00855
AAAGGAGC | inactive: -0.111
CCAGCTAC | inactive: -0.0516
CGATCGCC | inactive: -0.0688
AACGTCCC | inactive: -0.076
TAAGCCCA | inactive: -0.0537
AAGACTCC | inactive: -0.184
ACTAGCCA | inactive: 0.0322
CGGGTGTC | inactive: -0.00838
CAGCTTTA | inactive: -0.0203
GGTCCCGA | inactive: -0.138
CGCGCTAC | inactive: -0.0135
GCCGGATA | inactive: -0.0456
GGGTTTCA | inactive: 0.013
TGTCAACA | active: ≥ 0.324
AAACTTGG | inactive: -0.0323
ATAGCCTC | inactive: -0.0831
ACTCGGTG | inactive: -0.022
CCTACTGA | inactive: -0.0137
ACACGGAG | inactive: 0.131
CTCTTTCC | inactive: -0.21
CAGACAAC | inactive: 0.249

Sequence | PBM E-score
ATGTAACC | inactive: 0.275
GGTGCGGA | inactive: -0.0221
GCCTTACC | inactive: -0.135
AGTTCCGG | inactive: -0.065
AACTACAA | active: 0.342
AATGATGT | inactive: 0.249
TGAGTCCA | inactive: -0.0996
GAAGCCTC | inactive: -0.238
GCACCGTA | inactive: -0.0837
ATCCAGCG | inactive: -0.0713
AGGGTACT | inactive: 0.017
CTAGTATA | inactive: 0.179
ATTCGGAA | inactive: 0.0171
ACGAACCT | inactive: -0.0743
CGCACAAA | inactive: 0.0175
AGACTCAT | inactive: 0.0388
TAGACATA | inactive: 0.246
ACTCAGAG | inactive: -0.132
CGCGCTTC | inactive: -0.17
CGGCTCCC | inactive: -0.29
ATAAGCTG | ≥ 0.0802
CACCTGAC | inactive: 0.0311
ATTCGGGG | inactive: -0.178
TCTCAAAA | inactive: 0.107
GCCAAGAA | inactive: -0.0865

Sequence | PBM E-score
CAAGTGGC | inactive: -0.0572
CGGAGCGA | inactive: -0.0735
AACCATAT | inactive: 0.0186
GGTTAGGA | inactive: -0.158
AACAGCTT | inactive: 0.0597
ATCGCGCC | inactive: -0.194
GGAGTAAA | ≥ 0.089
CCTGCCAA | inactive: -0.0938
CTACTTGC | inactive: 0.0629
AGAGGACG | inactive: -0.0104
CTATACAC | inactive: 0.0914
TATCTCCA | ≥ 0.00159
AAGTCCTA | inactive: -0.00473
ACCCCGAA | inactive: -0.106
AAACAGGG | inactive: 0.0426
ACGCTTGC | inactive: -0.0583
AAAGACGC | inactive: -0.151
ACGATACA | inactive: 0.241
GTGAACAA | inactive: 0.238
AATCTGTC | inactive: 0.114
ACTACCCC | inactive: -0.0237
AGTGCTAG | inactive: -0.0231
GAACGGCC | inactive: -0.169
ATCGGAGA | inactive: -0.0748
